According to the supplement of paper PMC8728848:
Some of the results follow.

Experiments:
Assay in all cases: glycan array binding signal (z-score within array); higher = stronger binding
Conditions in all cases: glycan notation: IUPAC condensed, linker removed
[1] = molecular target: Gal(b1-4)GlcNAc(b1-3)Gal(b1-4)GlcNAc(b1-3)[Gal(b1-4)GlcNAc(b1-3)Gal(b1-4)GlcNAc(b1-6)]GalNAc
In short: (§1)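 From the Consortium for Functional Glycomics database, 3228 arrays were curated, keeping only those whose protein sequence was available. Binding is given as a within-array Z-score averaged across arrays sharing a protein sequence and across linkers. Negative Z-scores can be read as non-binding.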

[2] = molecular target: Gal(b1-4)GlcNAc(b1-3)Gal(b1-4)GlcNAc(b1-6)[Gal(b1-3)]GalNAc
In short: as §1

[3] = molecular target: Gal(b1-4)GlcNAc(b1-3)Gal(b1-4)[Fuc(a1-3)]GlcNAc(b1-3)Gal(b1-4)[Fuc(a1-3)]GlcNAc
In short: as §1

[4] = molecular target: Gal(b1-4)GlcNAc(b1-3)GalNAc
In short: as §1

[5] = molecular target: Gal(b1-4)GlcNAc(b1-3)[Fuc(a1-3)GlcNAc(b1-6)]Gal(b1-4)Glc
In short: as §1

[6] = molecular target: Gal(b1-4)GlcNAc(b1-3)[Gal(b1-4)GlcNAc(b1-6)]Gal(b1-4)GlcNAc
In short: as §1

[7] = molecular target: Gal(b1-4)GlcNAc(b1-3)[GlcNAc(b1-6)]Gal(b1-4)GlcNAc
In short: as §1

[8] = molecular target: Gal(b1-4)GlcNAc(b1-6)Gal(b1-4)GlcNAc
In short: as §1

[9] = molecular target: Gal(b1-4)GlcNAc(b1-6)GalNAc
In short: as §1

[10] = molecular target: Gal(b1-4)GlcNAc(b1-6)[Gal(b1-3)]GalNAc
In short: as §1

[11] = molecular target: Gal(b1-4)GlcNAc(b1-6)[Gal(b1-4)GlcNAc(b1-3)]GalNAc
In short: as §1

Gal(b1-4)GlcNAc6P = molecular target: Gal(b1-4)GlcNAc6P
In short: as §1

Gal(b1-6)Gal = molecular target: Gal(b1-6)Gal
In short: as §1

Gal3S(b1-3)GalNAc = molecular target: Gal3S(b1-3)GalNAc
In short: as §1

Gal3S(b1-3)GlcNAc = molecular target: Gal3S(b1-3)GlcNAc
In short: as §1

[12] = molecular target: Gal3S(b1-3)[Fuc(a1-4)]GlcNAc
In short: as §1

Gal3S(b1-4)Glc = molecular target: Gal3S(b1-4)Glc
In short: as §1

Gal3S(b1-4)Glc6S = molecular target: Gal3S(b1-4)Glc6S
In short: as §1

Gal3S(b1-4)GlcNAc = molecular target: Gal3S(b1-4)GlcNAc
In short: as §1

[13] = molecular target: Gal3S(b1-4)[Fuc(a1-3)]Glc6S
In short: as §1

[14] = molecular target: Gal3S(b1-4)[Fuc(a1-3)]GlcNAc
In short: as §1

[15] = molecular target: Gal3S(b1-4)[Fuc(a1-3)]GlcNAc6S
In short: as §1

Gal3S4S(b1-4)GlcNAc = molecular target: Gal3S4S(b1-4)GlcNAc
In short: as §1

Gal3S6S(b1-4)GlcNAc = molecular target: Gal3S6S(b1-4)GlcNAc
In short: as §1

Gal3S6S(b1-4)GlcNAc6S = molecular target: Gal3S6S(b1-4)GlcNAc6S
In short: as §1

Gal4S(b1-4)GlcNAc = molecular target: Gal4S(b1-4)GlcNAc
In short: as §1

Gal4S6S(b1-4)GlcNAc = molecular target: Gal4S6S(b1-4)GlcNAc
In short: as §1

Gal6P(b1-4)GlcNAc = molecular target: Gal6P(b1-4)GlcNAc
In short: as §1

Gal6S(b1-3)GlcNAc = molecular target: Gal6S(b1-3)GlcNAc
In short: as §1

Gal6S(b1-3)GlcNAc6S = molecular target: Gal6S(b1-3)GlcNAc6S
In short: as §1

Gal6S(b1-4)Glc = molecular target: Gal6S(b1-4)Glc
In short: as §1

Gal6S(b1-4)Glc6S = molecular target: Gal6S(b1-4)Glc6S
In short: as §1

Gal6S(b1-4)GlcNAc = molecular target: Gal6S(b1-4)GlcNAc
In short: as §1

Gal6S(b1-4)GlcNAc6S = molecular target: Gal6S(b1-4)GlcNAc6S
In short: as §1

GalNAc(a1-3)Gal = molecular target: GalNAc(a1-3)Gal
In short: as §1

GalNAc(a1-3)GalNAc = molecular target: GalNAc(a1-3)GalNAc
In short: as §1

[16] = molecular target: GalNAc(a1-3)GalNAc(b1-3)Gal(a1-4)Gal(b1-4)Glc
In short: as §1

B1: Gal 8 (Mus musculus), Q9JL15 (protein)
chain: MGGSHHHHHHGMASMLSLNNLQNIIYNPIIPYVGTITEQLKPGSLIVIRGHVPKDSERFQVDFQLGNSLKPRADVAFHFNPRFKRSSCIVCNTLTQEKWGWEEITYDMPFRKEKSFEIVFMVLKNKFQVAVNGRHVLLYAHRISPEQIDTVGIYGKVNIHSIGFRFSSASALPHTLGDLQSMETSALGLTQINRENIQKPGKLQLSLPFEARLNASMGPGRTVVIKGEVNTNARSFNVDLVAGKTRDIALHLNPRLNVKAFVRNSFLQDAWGEEERNITCFPFSSGMYFEMIIYCDVREFKVAINGVHSLEYKHRFKDLSSIDTLSVDGDIRLLDVRSW
glycan array binding signal (z-score) [1]: -0.063 | glycan array binding signal (z-score) [2]: 0.021 | glycan array binding signal (z-score) [3]: 0.069 | glycan array binding signal (z-score) [4]: -0.207 | glycan array binding signal (z-score) [5]: -0.188 | glycan array binding signal (z-score) [6]: 0.445 | glycan array binding signal (z-score) [7]: 0.061 | glycan array binding signal (z-score) [8]: -0.023 | glycan array binding signal (z-score) [9]: -0.214 | glycan array binding signal (z-score) [10]: 0.086 | glycan array binding signal (z-score) [11]: 0.001 | glycan array binding signal (z-score) (Gal(b1-4)GlcNAc6P): -0.31 | glycan array binding signal (z-score) (Gal(b1-6)Gal): -0.538 | glycan array binding signal (z-score) (Gal3S(b1-3)GalNAc): -0.246 | glycan array binding signal (z-score) (Gal3S(b1-3)GlcNAc): 0.013 | glycan array binding signal (z-score) [12]: -0.497 | glycan array binding signal (z-score) (Gal3S(b1-4)Glc): -0.186 | glycan array binding signal (z-score) (Gal3S(b1-4)Glc6S): 0.566 | glycan array binding signal (z-score) (Gal3S(b1-4)GlcNAc): -0.385 | glycan array binding signal (z-score) [13]: -0.498 | glycan array binding signal (z-score) [14]: -0.532 | glycan array binding signal (z-score) [15]: -0.164 | glycan array binding signal (z-score) (Gal3S4S(b1-4)GlcNAc): -0.55 | glycan array binding signal (z-score) (Gal3S6S(b1-4)GlcNAc): -0.533 | glycan array binding signal (z-score) (Gal3S6S(b1-4)GlcNAc6S): -0.495 | glycan array binding signal (z-score) (Gal4S(b1-4)GlcNAc): -0.543 | glycan array binding signal (z-score) (Gal4S6S(b1-4)GlcNAc): -0.538 | glycan array binding signal (z-score) (Gal6P(b1-4)GlcNAc): -0.548 | glycan array binding signal (z-score) (Gal6S(b1-3)GlcNAc): -0.538 | glycan array binding signal (z-score) (Gal6S(b1-3)GlcNAc6S): -0.532 | glycan array binding signal (z-score) (Gal6S(b1-4)Glc): -0.532 | glycan array binding signal (z-score) (Gal6S(b1-4)Glc6S): -0.51 | glycan array binding signal (z-score) (Gal6S(b1-4)GlcNAc): -0.546 | glycan array binding signal (z-score) (Gal6S(b1-4)GlcNAc6S): -0.536 | glycan array binding signal (z-score) (GalNAc(a1-3)Gal): -0.532 | glycan array binding signal (z-score) (GalNAc(a1-3)GalNAc): -0.497 | glycan array binding signal (z-score) [16]: 0.576
